# In the supplement of paper PMC10037445:
# Whole data set: some 2,900 compounds, median “NF-kB SEAP reporter activity, fold change vs agonist alone” near 0.99, cut for the highest 2% near 2.6. The list shows a part of the results.
# What was measured:
# [1] = tested on: RAW-Dual; test: NF-kB SEAP reporter activity, fold change vs agonist alone; cytotoxicity flag (confluency mask): not cytotoxic; higher = enhanced NF-kB activity
# How it was run: (§1)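 Cytotoxic wells were those whose IncuCyte confluency was below 70% of agonist controls in both mask sets. The cells were RAW-Dual macrophages at 50,000 cells/well in DMEM on 384-well plates, dosed with 50 nL of library stock by pin tool, stimulated with a PRR agonist 1 h later, and kept at 37 °C, 5% CO2 for 20 hours. IRF and NF-κB reporter activity, as fold change over agonist-alone wells, came from supernatant read by QuantiLuc luminescence and QuantiBlue absorbance, respectively.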
# [2] = tested on: RAW-Dual; test: NF-kB SEAP reporter activity, fold change vs agonist alone; higher = enhanced NF-kB activity; conditions: cytotoxicity flag (confluency mask): not cytotoxic
# How it was run: as §1
# [3] = tested on: RAW-Dual; test: NF-kB SEAP reporter activity, fold change vs agonist alone; cytotoxicity flag (confluency mask): cytotoxic (confluency <70% of control); higher = enhanced NF-kB activity
# How it was run: as §1
# [4] = agonist: ODN 1826 (TLR9) 0.5 ug/mL
# [5] = agonist: Pam2CSK4 (TLR2/6) 0.1 ug/mL
# [6] = agonist: Pam3CSK4 (TLR2/1) 0.1 ug/mL
# [7] = library stock concentration (final ~1000-fold dilution): 10 mM, agonist: Imiquimod (TLR7) […]
# [8] = library stock concentration (final ~1000-fold dilution): 10 mM, agonist: MPLA (TLR4) […]
smiles,measurement,setting,value
FC(F)F.N=C(N)NCCCC1NC(=O)C(CCCCN)NC(=O)C(Cc2ccc(O)cc2)NC(=O)C(CC(=O)O)NC(=O)CNC1=O.O=C(O)C(F)(F)F.O=CO (stereo unspecified) (library stock concentration (final ~1000-fold dilution): 10 mM),NF-kB SEAP reporter activity,[1]; agonist: LPS (TLR4) 0.1 ug/mL,1.23
same,NF-kB SEAP reporter activity,[1]; [4],0.997
same,NF-kB SEAP reporter activity,[1]; [5],1.14
same,NF-kB SEAP reporter activity,[1]; [6],0.899
FC(F)F.N=C(N)NCCCC1NC(=O)C(CCCCN)NC(=O)C(Cc2ccc(O)cc2)NC(=O)C(CC(=O)O)NC(=O)CNC1=O.O=C(O)C(F)(F)F.O=CO (stereo unspecified),NF-kB SEAP reporter activity,[2]; [7],0.972
same,NF-kB SEAP reporter activity,[2]; [8],1.04
N=C(N)NCCCC(N)C(=O)NCC(=O)NC(CC(=O)O)C(=O)O (stereo unspecified),NF-kB SEAP reporter activity,"[2]; library stock concentration (final ~1000-fold dilution): 10 mM water, agonist: Imiquimod (TLR7) […]",0.924
same,NF-kB SEAP reporter activity,"[2]; library stock concentration (final ~1000-fold dilution): 10 mM water, agonist: MPLA (TLR4) […]",1.06
N=C(N)NCCCC(N)C(=O)NCC(=O)NC(CC(=O)O)C(=O)O (stereo unspecified) (library stock concentration (final ~1000-fold dilution): 10 mM water),NF-kB SEAP reporter activity,[1]; agonist: LPS (TLR4) 0.1 ug/mL,1.41
same,NF-kB SEAP reporter activity,[1]; [4],1.14
same,NF-kB SEAP reporter activity,[1]; [5],1.2
same,NF-kB SEAP reporter activity,[1]; [6],0.993
Cl.Fc1ccc(C2CCNCC2COc2ccc3c(c2)OCO3)cc1 (stereo unspecified) (library stock concentration (final ~1000-fold dilution): 10 mM),NF-kB SEAP reporter activity,[1]; agonist: LPS (TLR4) 0.1 ug/mL,1.43
same,NF-kB SEAP reporter activity,[1]; [4],0.681
same,NF-kB SEAP reporter activity,[1]; [5],0.743
same,NF-kB SEAP reporter activity,[1]; [6],0.829
Cl.Fc1ccc(C2CCNCC2COc2ccc3c(c2)OCO3)cc1 (stereo unspecified),NF-kB SEAP reporter activity,[2]; [7],1.5
same,NF-kB SEAP reporter activity,[2]; [8],1.07
CNC(=O)c1ccc(N2C(=S)N(c3ccc(C#N)c(C(F)(F)F)c3)C(=O)C2(C)C)cc1F (library stock concentration (final ~1000-fold dilution): 10 mM),NF-kB SEAP reporter activity,[1]; agonist: LPS (TLR4) 0.1 ug/mL,1.11
same,NF-kB SEAP reporter activity,[1]; [4],1.02
same,NF-kB SEAP reporter activity,[1]; [5],0.869
same,NF-kB SEAP reporter activity,[1]; [6],0.992
CNC(=O)c1ccc(N2C(=S)N(c3ccc(C#N)c(C(F)(F)F)c3)C(=O)C2(C)C)cc1F,NF-kB SEAP reporter activity,[2]; [7],0.959
same,NF-kB SEAP reporter activity,[2]; [8],0.922
CCCc1ccc(OCC(=O)N(Cc2nc(-c3cccnc3)no2)C(C)C)cc1 (library stock concentration (final ~1000-fold dilution): 10 mM),NF-kB SEAP reporter activity,[1]; agonist: LPS (TLR4) 0.1 ug/mL,1.21
same,NF-kB SEAP reporter activity,[1]; [4],0.989
same,NF-kB SEAP reporter activity,[1]; [5],1.01
same,NF-kB SEAP reporter activity,[1]; [6],0.985
CCCc1ccc(OCC(=O)N(Cc2nc(-c3cccnc3)no2)C(C)C)cc1,NF-kB SEAP reporter activity,[2]; [7],0.885
same,NF-kB SEAP reporter activity,[2]; [8],1.19
CCN(CC)CCOCCOC(=O)C1(c2ccccc2)CCCC1,NF-kB SEAP reporter activity,[2]; [7],0.866
same,NF-kB SEAP reporter activity,[2]; [8],1.06
CCN(CC)CCOCCOC(=O)C1(c2ccccc2)CCCC1 (library stock concentration (final ~1000-fold dilution): 10 mM),NF-kB SEAP reporter activity,[1]; agonist: LPS (TLR4) 0.1 ug/mL,1.12
same,NF-kB SEAP reporter activity,[1]; [4],0.647
same,NF-kB SEAP reporter activity,[1]; [5],1.07
same,NF-kB SEAP reporter activity,[1]; [6],1.03
CCC(C)C(=O)OC1CC(C)C=C2C=CC(C)C(CCC3CC(O)CC(=O)O3)C21 (stereo unspecified) (library stock concentration (final ~1000-fold dilution): 10 mM),NF-kB SEAP reporter activity,[1]; agonist: LPS (TLR4) 0.1 ug/mL,3.33
same,NF-kB SEAP reporter activity,[1]; [4],2.62
same,NF-kB SEAP reporter activity,[1]; [5],1.93
same,NF-kB SEAP reporter activity,[1]; [6],3.02
CCC(C)C(=O)OC1CC(C)C=C2C=CC(C)C(CCC3CC(O)CC(=O)O3)C21 (stereo unspecified),NF-kB SEAP reporter activity,[2]; [7],2.54
same,NF-kB SEAP reporter activity,[2]; [8],1.94
CCN(CC)C(=O)C1(c2ccccc2)CC1CN (stereo unspecified),NF-kB SEAP reporter activity,[2]; [7],1.01
same,NF-kB SEAP reporter activity,[2]; [8],1.08
CCN(CC)C(=O)C1(c2ccccc2)CC1CN (stereo unspecified) (library stock concentration (final ~1000-fold dilution): 10 mM),NF-kB SEAP reporter activity,[1]; agonist: LPS (TLR4) 0.1 ug/mL,1.03
same,NF-kB SEAP reporter activity,[1]; [4],0.889
same,NF-kB SEAP reporter activity,[1]; [5],1.01
same,NF-kB SEAP reporter activity,[1]; [6],1.03
CCn1c(=O)c(-c2ccn[nH]2)cc2c(C)nc(N)nc21,NF-kB SEAP reporter activity,[2]; [7],1.15
same,NF-kB SEAP reporter activity,[2]; [8],1.31
CCn1c(=O)c(-c2ccn[nH]2)cc2c(C)nc(N)nc21 (library stock concentration (final ~1000-fold dilution): 10 mM),NF-kB SEAP reporter activity,[1]; agonist: LPS (TLR4) 0.1 ug/mL,1.58
same,NF-kB SEAP reporter activity,[1]; [4],1.72
same,NF-kB SEAP reporter activity,[1]; [5],1.19
same,NF-kB SEAP reporter activity,[1]; [6],1.93
CCc1cccc(CC)c1NC(=O)N1Cc2[nH]nc(NC(=O)c3ccc(N4CCN(C)CC4)cc3)c2C1 (library stock concentration (final ~1000-fold dilution): 10 mM),NF-kB SEAP reporter activity,[1]; agonist: LPS (TLR4) 0.1 ug/mL,1.11
same,NF-kB SEAP reporter activity,[1]; [4],1.18
same,NF-kB SEAP reporter activity,[1]; [5],1.85
same,NF-kB SEAP reporter activity,[1]; [6],1.77
CCc1cccc(CC)c1NC(=O)N1Cc2[nH]nc(NC(=O)c3ccc(N4CCN(C)CC4)cc3)c2C1,NF-kB SEAP reporter activity,[2]; [7],1.55
same,NF-kB SEAP reporter activity,[2]; [8],0.858
COc1ccc(Cl)cc1C(=O)NCCc1ccc(S(=O)(=O)NC(=O)NC2CCCCC2)cc1 (library stock concentration (final ~1000-fold dilution): 50 mM),NF-kB SEAP reporter activity,[1]; agonist: LPS (TLR4) 0.1 ug/mL,0.872
same,NF-kB SEAP reporter activity,[1]; [4],0.906
same,NF-kB SEAP reporter activity,[1]; [5],0.602
same,NF-kB SEAP reporter activity,[1]; [6],0.557
COc1ccc(Cl)cc1C(=O)NCCc1ccc(S(=O)(=O)NC(=O)NC2CCCCC2)cc1,NF-kB SEAP reporter activity,"[2]; library stock concentration (final ~1000-fold dilution): 50 mM, agonist: Imiquimod (TLR7) […]",0.611
same,NF-kB SEAP reporter activity,"[2]; library stock concentration (final ~1000-fold dilution): 50 mM, agonist: MPLA (TLR4) […]",1.02
COc1ccc2cc(-c3[nH]c(-c4ccc(S(C)=O)cc4)nc3-c3ccncc3)ccc2c1 (stereo unspecified),NF-kB SEAP reporter activity,[2]; [7],1.81
same,NF-kB SEAP reporter activity,[2]; [8],2.57
COc1ccc2cc(-c3[nH]c(-c4ccc(S(C)=O)cc4)nc3-c3ccncc3)ccc2c1 (stereo unspecified) (library stock concentration (final ~1000-fold dilution): 10 mM),NF-kB SEAP reporter activity,[1]; agonist: LPS (TLR4) 0.1 ug/mL,3.42
same,NF-kB SEAP reporter activity,[1]; [4],2.22
same,NF-kB SEAP reporter activity,[1]; [5],1.74
same,NF-kB SEAP reporter activity,[1]; [6],2.04
CCOC(=O)C1=C(N)Oc2ccc(Cl)cc2C1C(C#N)C(=O)OCC (stereo unspecified) (library stock concentration (final ~1000-fold dilution): 10 mM),NF-kB SEAP reporter activity,[3]; agonist: LPS (TLR4) 0.1 ug/mL,1.1
same,NF-kB SEAP reporter activity,[3]; [4],0.413
same,NF-kB SEAP reporter activity,[3]; [5],0.654
same,NF-kB SEAP reporter activity,[3]; [6],0.405
